According to PMC12421412 (2025):

Tests used:
Assay in all cases: SPR
[1] = target: T1, soluble mutant SORLA^N1358S ectodomain, hexa-His-tagged (human, UniProt Q92673 82-2137, N1358S)
[2] = target: T2, soluble wildtype SORLA ectodomain (Sortilin-related receptor with A-type repeats), hexa-His-tagged (human, UniProt Q92673 82-2137)
[3] = target: T1, soluble mutant SORLA^N1358S ectodomain, …; remark: listed apart in the source
[4] = target: T2, soluble wildtype SORLA ectodomain …; remark: listed apart in the source

B1: ectodomain of APP^695 (amyloid precursor protein) (domain or fragment)
chain: not shown
[1]
  Kd: 2 µM
[2]
  Kd: 1 µM
[3]
  koff: 0.0025 s⁻¹
[4]
  koff: 0.0039 s⁻¹
